Experimental data as given in the RNAGym collection of RNA variant scans (doi:10.1101/gad.245936.114).
Variants at the background level are over-represented here.

B1: tRNA (parent)
chain: CUCUCGGUAGCCAAGUUGGUUUAAGGCGCAAGACUUUAAUUUAUCACUACGAAAUCUUGAGAUCGGGCGUUCGACUCGCCCCCGGGAGAUUUUUUCCUCGAGCAA

Variants of: B1
Assay: nonsense suppression (GFP-seq) (ratio to wild type); higher = more function; SUP4oc tRNA, yeast GFP reporter sort-seq
How it was run: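 Yeast were grown in raffinose/galactose medium with 80 mg/L adenine, each strain bearing a genome-integrated ochre-suppressor tRNA variant from a ~3% random-mutation library, a galactose-driven GFP ochre reporter, and RFP. After sorting into GFP/RFP bins, every bin was sequenced on an Illumina platform at phred ≥30. The GFPSEQ value, a measure of nonsense suppression, is the weighted bin median GFP/RFP relative to the unmutated parent tRNA, using each variant's estimated cell share per bin as the weight. Only variants with ≥100 reads and ≥30 cells were included.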

Variant	nonsense suppression
CUCUCGGUAGCUAACUUGGUUUAAGGCGCAAGACUUUAAUUUAUCACUACGAAAUCUUGAGAUCGGGCGUUCGACUCGCCCCCGGGAGAUUUUUUCCUCGAGCAA [C12U G15C]	≤ 0.026
CUCUCGGUAGCUAACUUUGUUUAAGACGCAAGACUUUAAUUUAUCACUACGAAAUCUUGAGAUCGGGCGUUCGACUCGCCCCCGGGAGAUUUUUUCCUCGAGCAA [C12U G15C G18U G26A]	≤ 0.026
CUCUCGGUAGCUAACUUGGUUUAAGGCGCAAGACUUUAAUUUAUCACUACGAAAUCUUGAAAUCGGGCGUUCGACUCGCCCCCGGGAGAUUUUUUCCUCGAGCAA [C12U G15C G61A]	≤ 0.026
CUCUCGGUAGCUAACUUGGUUUAAGGCGCAAGACUUUAAUUUAUCACUACGAAAUCUUGAGAUCGGGCGUGCGACUCGCCCCCGGGAGAUUUUUUCCUCGAGCAA [C12U G15C U71G]	≤ 0.026
CUCUCGGUAGCUAAGUUGAUUUAAGGCGCAAGACUUUAAUUUAUCACUACGAAAUCUUGAGAUCGGGCGUUCGACUCGCCCCCGGGAGAUUUUUUCCUCGAGCAA [C12U G19A]	≤ 0.026
CUCUCGGUAGCUAAGUUGAUUUAAGGCGCCAGACUUUAAUUUAUCACUACGAAAUCUUGAGAUCGGGCAUUCGACUCGCCCCCGGGAGAUUUUUUCCUCGAGCAA [C12U G19A A30C G69A]	≤ 0.026
CUCUCGGUAGCUAAGUUGAUUUAAGGCGCAAGACUUUAAUUUAUCACUACGAAAUGUUGAGAUCGGGCGUACGACUCCCCCCCGGGAGAUUUUUUCCUCGAGCAA [C12U G19A C56G U71A G78C]	≤ 0.026
CUCUCGGUAGCUAAGUUGAUUUAAGCCGCAAGACUUUAAUUUAUCACUACGAAAUCGUGAGAUCGGGCGUUCGACUCGCCCCCGGGAGAUUUUUUCCUCGAGCAA [C12U G19A G26C U57G]	≤ 0.026
CUCUCGGUAGCUAAGUUGAUUUAAGGCGCAAGACUUUAAUUUAUCACUACGAAAUCUUGAGAUCCGGCGUUCGACUCGCACCCGGGAGAUUUUUUCCUCGAGCAA [C12U G19A G65C C80A]	≤ 0.026
CUCUCGGUAGCUAAGUUGCUUUCAGGCGCAAUACUUUAAUUUAUCACUACGAAAUCUUGAGAUCGGGCGUUCGACUCGCCCCCGGGAGAUUUUUUCCUCGAGCAA [C12U G19C A23C G32U]	≤ 0.026
CUCUCGGUAGCUAAGUUGCUUUAAGGCGCAAGACUUUAAUUUAUCACUACGAAAUCUUCAGAUCGGGCGUUCGACACGCCCCCGGGAGAUUUUUUCCUCGAGCAA [C12U G19C G59C U76A]	≤ 0.026
CUCUCGGUAGCUAAGUUGUUUUAAGGAGCAAGACUUUAAUUUAUCACUACGAAAUCUUGAGAUCGGGCAUUCGACUCGCCCCCGGGAGAUUUUUUCCUCGAGCAA [C12U G19U C27A G69A]	≤ 0.026
CUCUCGGUAGCUAAGUUGUUUUAAGGCGCAAGACUUUAAUUUAUCACUACGAAAUCCUGAGAUCGGGCGUUCGACUAGCCCCCGGGAGUUUUUUUCCUCGAGCAA [C12U G19U U57C C77A A89U]	≤ 0.026
CUCUCGGUAGCUAAGUUGGUUUAAAGCGCAAGACUUUAAUUUAUCACUACGAAAUCUUGAGAUCGGGCGUUCGACUCGCCCCCGGGAGAUUUUUUCCUCGAGCAA [C12U G25A]	1.19
CUCUCGGUAGCUAAGUUGGUUUAAAGCGCCAGACUUUAAUUUAUCACUACGAAAUCUUGAGAUCGGGCGUUCGACUCGCCCCCGGGAGAUUUUUUCCUCGAGCAA [C12U G25A A30C]	≤ 0.026
CUCUCGGUAGCUAAGUUGGUUUAAAGCGCAAGACUUUAAUUUAUCACUACGAAAUCUUGACAUCGGGCGUUCGACUCGCCCCCGGGAGAUUUUUUCCUCGAGCAA [C12U G25A G61C]	0.823
CUCUCGGUAGCUAAGUUGGUUUAAGCCGCAAGACUUUAAUUUAUCACUACGAAAUCUUGAGAUCGGGCGUUCGACUCGCCCCCGGGAGAUUUUUUCCUCGAGCAA [C12U G26C]	≤ 0.026
CUCUCGGUAGCUAAGUUGGUUUAAGUCGCAAGACUUUAAUUUAUCACUACGAAAUCUUGAGAUCGGGCGUUCGACUCGCCCCCGGGAGAUUUUUUCCUCGAGCAA [C12U G26U]	≤ 0.026
CUCUCGGUAGCUAAGUUGGUUUAAGGCUCAAGACUUUAAUUUAUCACUACGAAAUCUUGAGAUCGGGCGUUCGACUCGCCCCCGGGAGAUUUUUUCCUCGAGCAA [C12U G28U]	0.0705
CUCUCGGUAGCUAAGUUGGUUUAAGGCUCAAGACUUUAAUUUAUCACUACGAAAUCUUGAGAUCGGGCGUUCGACCCGCCCCCGGGAGAUUUUUUCCUCGAGCAA [C12U G28U U76C]	≤ 0.026
CUCUCGGUAGCUAAGUUGGUUUAAGGCGCAAAACUUUAAUUUAUCACUACGAAAUCUUGAGAUCGCGCGUUCGACUCGCCCCCGGGAGAUUUUUUCCUCGAGCAA [C12U G32A G66C]	≤ 0.026
CUCUCGGUAGCUAAGUUGGUUUAAGGCGCAACACUUUAAUUUAUCACUACGAAAUCUUGAGAUCGGCCGCUCGACUCGCCCCCGGGAGAUUUUUUCCUCGAGCAA [C12U G32C G67C U70C]	≤ 0.026
CUCUCGGUAGCUAAGUUGGUUUAAGGCGCAAUACUUUAAUUUAUCACUACGAAAUCUUGAGAUCGGGCGUUCGACUCGCCCCCGGGAGAUUUUUUCCUCGAGCAA [C12U G32U]	≤ 0.026
CUCUCGGUAGCUAAGUUGGUUUAAGGCGCAAUACUUUAAUUUAUCACUACGAAAUCUUGAGAUCGGGCGUUCGACUAGGCCCCGGGAGAUUUUUUCCUCGAGCAA [C12U G32U C77A C79G]	≤ 0.026
CUCUCGGUAGCUAAGUUGGUUUAAGGCGCAAGACUUUAAUUUAUCACUACGAAAUCUUGAUAUCGGGCGUUCGACUCGCCCCCGGGAAAUUUUUUCCUCGAGCAA [C12U G61U G88A]	≤ 0.026
CUCUCGGUAGCUAAGUUGGUUUAAGGCGCAAGACUUUAAUUUAUCACUACGAAAUCUUGAGAUCCGGCGUGCGAUUCACCCCCGGGAGAUUUUUUCCUCGAGCAA [C12U G65C U71G C75U G78A]	≤ 0.026
CUCUCGGUAGCUAAGUUGGUUUAAGGCGCAAGACUUUAAUUUAUCACUACGAAAUCUUGAGAUCGCGCGUUCGACUCGCCCCCGGGACAUUUUUUCCUCGAGCAA [C12U G66C G88C]	≤ 0.026
